Results: PMC7994000 (Biochimica et biophysica acta. Proteins and proteomics, 2020)

T1: Full-length human IKK2 (human, UniProt O14920 1-756)
T1 sequence (looked up): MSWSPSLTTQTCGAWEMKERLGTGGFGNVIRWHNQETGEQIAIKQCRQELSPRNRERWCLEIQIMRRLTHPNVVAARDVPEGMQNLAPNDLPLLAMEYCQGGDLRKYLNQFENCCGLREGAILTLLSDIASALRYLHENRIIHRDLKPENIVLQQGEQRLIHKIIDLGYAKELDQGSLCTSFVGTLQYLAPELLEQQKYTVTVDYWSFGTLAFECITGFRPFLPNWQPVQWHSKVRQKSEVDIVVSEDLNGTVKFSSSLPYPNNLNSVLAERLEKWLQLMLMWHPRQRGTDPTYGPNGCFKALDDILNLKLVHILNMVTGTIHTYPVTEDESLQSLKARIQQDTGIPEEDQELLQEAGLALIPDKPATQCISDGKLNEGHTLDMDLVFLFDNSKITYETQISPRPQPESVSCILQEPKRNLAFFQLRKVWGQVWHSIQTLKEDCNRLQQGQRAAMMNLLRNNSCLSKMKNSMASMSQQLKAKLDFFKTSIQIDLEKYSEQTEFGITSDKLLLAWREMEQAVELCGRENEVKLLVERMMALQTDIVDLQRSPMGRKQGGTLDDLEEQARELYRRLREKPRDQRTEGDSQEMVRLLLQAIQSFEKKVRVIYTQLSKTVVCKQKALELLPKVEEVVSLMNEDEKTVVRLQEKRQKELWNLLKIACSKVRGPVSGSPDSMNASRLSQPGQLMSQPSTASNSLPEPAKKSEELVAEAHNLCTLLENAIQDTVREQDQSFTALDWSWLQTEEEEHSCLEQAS

B1: NEMO^Q157P (natural protein)
chain: not shown
B2: NEMO^A162P (natural protein)
chain: not shown
B3: NEMO^R175P (natural protein)
chain: not shown
B4: NEMO^L227P (natural protein)
chain: not shown
B5: NEMO^[…] (domain or fragment)
chain: not shown

Assays:
Experiment in all cases: SEC-MALS
[1] = target: the molecule itself
[2] = target: the molecule itself; remark: listed apart in the source
[3] = target: the molecule itself; remark: listed apart in the source
[4] = target: T1, Full-length human IKK2

Binder | binding result [1] | binding result [4] | further results
B1 | binds |  | 
B2 |  |  | binding result [2]: binds
B3 |  |  | binding result [3]: binds
B4 | binds | binds | 
B5 |  | binds | stoichiometry N [3]: 3

Like-named read-outs stand apart in the source and are kept apart here.
